# Reference: the supplement of paper PMC8728848
# The other results are listed elsewhere or left out.
# How the values were obtained:
# Assay in all cases: glycan array binding signal (z-score within array); higher = stronger binding
# Conditions in all cases: glycan notation: IUPAC condensed, linker removed
# [1] = molecular target: GlcNAc(b1-3)[GlcNAc(b1-6)]GlcNAc(b1-4)GlcNAc
# In short: (§1)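 Negative Z-scores can be read as non-binding. The Z-score is calculated within each array and then averaged across arrays of one protein sequence at different concentrations or buffers and across linkers. Arrays, 3228 in all, were curated from the Consortium for Functional Glycomics database and kept only where the protein sequence was available.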
# [2] = molecular target: GlcNAc(b1-4)Gal(b1-4)GlcNAc
# In short: as §1
# GlcNAc(b1-4)GlcNAc = molecular target: GlcNAc(b1-4)GlcNAc
# In short: as §1
# [3] = molecular target: GlcNAc(b1-4)GlcNAc(b1-4)GlcNAc
# In short: as §1
# [4] = molecular target: GlcNAc(b1-4)GlcNAc(b1-4)GlcNAc(b1-4)GlcNAc(b1-4)GlcNAc
# In short: as §1
# [5] = molecular target: GlcNAc(b1-4)GlcNAc(b1-4)GlcNAc(b1-4)GlcNAc(b1-4)GlcNAc(b1-4)GlcNAc
# In short: as §1
# [6] = molecular target: GlcNAc(b1-4)[GlcNAc(b1-6)]GalNAc
# In short: as §1
# [7] = molecular target: GlcNAc(b1-6)Gal(b1-4)GlcNAc
# In short: as §1
# GlcNAc(b1-6)GalNAc = molecular target: GlcNAc(b1-6)GalNAc
# In short: as §1
# GlcNAc3Prop(b1-4)GlcNAc = molecular target: GlcNAc3Prop(b1-4)GlcNAc
# In short: as §1
# [8] = molecular target: GlcNAc6S(b1-3)Gal(b1-4)GlcNAc
# In short: as §1
# Kdn(a2-3)Gal(b1-3)GalNAc = molecular target: Kdn(a2-3)Gal(b1-3)GalNAc
# In short: as §1
# Kdn(a2-3)Gal(b1-3)GlcNAc = molecular target: Kdn(a2-3)Gal(b1-3)GlcNAc
# In short: as §1
# Kdn(a2-3)Gal(b1-4)Glc = molecular target: Kdn(a2-3)Gal(b1-4)Glc
# In short: as §1
# Kdn(a2-3)Gal(b1-4)GlcNAc = molecular target: Kdn(a2-3)Gal(b1-4)GlcNAc
# In short: as §1
# [9] = molecular target: Kdn(a2-3)Gal(b1-4)[Fuc(a1-3)]GlcNAc
# In short: as §1
# Kdn(a2-6)Gal(b1-4)GlcNAc = molecular target: Kdn(a2-6)Gal(b1-4)GlcNAc
# In short: as §1
# [10] = molecular target: Man(a1-2)Man(a1-2)Man(a1-3)Man
# In short: as §1
# [11] = molecular target: Man(a1-2)Man(a1-2)Man(a1-6)[Man(a1-3)]Man
# In short: as §1
# Man(a1-2)Man(a1-3)Man = molecular target: Man(a1-2)Man(a1-3)Man
# In short: as §1
# [12] = molecular target: Man(a1-2)Man(a1-3)[Man(a1-2)Man(a1-6)]Man
# In short: as §1
# [13] = molecular target: Man(a1-2)Man(a1-3)[Man(a1-2)Man(a1-6)]Man(a1-6)[Man(a1-2)Man(a1-2)Man(a1-3)]Man
# In short: as §1
# [14] = molecular target: Man(a1-2)Man(a1-3)[Man(a1-2)Man(a1-6)]Man(a1-6)[Man(a1-2)Man(a1-2)Man(a1-3)]Man(b1-4)GlcNAc(b1-4)GlcNAc
# In short: as §1
# [15] = molecular target: Man(a1-2)Man(a1-3)[Man(a1-6)]Man(a1-6)[Man(a1-2)Man(a1-3)]Man(b1-4)GlcNAc(b1-4)GlcNAc
# In short: as §1
# [16] = molecular target: Man(a1-2)Man(a1-6)[Man(a1-3)]Man(a1-6)[Man(a1-2)Man(a1-2)Man(a1-3)]Man
# In short: as §1
# [17] = molecular target: Man(a1-2)Man(a1-6)[Man(a1-3)]Man(a1-6)[Man(a1-2)Man(a1-2)Man(a1-3)]Man(b1-4)GlcNAc(b1-4)GlcNAc
# In short: as §1
# Man(a1-3)[Man(a1-6)]Man = molecular target: Man(a1-3)[Man(a1-6)]Man
# In short: as §1
# [18] = molecular target: Man(a1-3)[Man(a1-6)]Man(a1-6)[Man(a1-2)Man(a1-3)]Man(b1-4)GlcNAc(b1-4)GlcNAc
# In short: as §1
# [19] = molecular target: Man(a1-3)[Man(a1-6)]Man(a1-6)[Man(a1-3)]Man
# In short: as §1
# [20] = molecular target: Man(a1-3)[Man(a1-6)]Man(a1-6)[Man(a1-3)]Man(b1-4)GlcNAc(b1-4)GlcNAc
# In short: as §1
# [21] = molecular target: Man(a1-3)[Man(a1-6)]Man(b1-4)GlcNAc(b1-4)GlcNAc
# In short: as §1
# [22] = molecular target: Man(a1-3)[Man(a1-6)]Man(b1-4)GlcNAc(b1-4)[Fuc(a1-6)]GlcNAc
# In short: as §1
# Man(a1-6)Man = molecular target: Man(a1-6)Man
# In short: as §1
# Man(b1-4)GlcNAc = molecular target: Man(b1-4)GlcNAc
# In short: as §1
# MurNAc(b1-4)GlcNAc = molecular target: MurNAc(b1-4)GlcNAc
# In short: as §1
# Neu5Ac(a2-3)Gal = molecular target: Neu5Ac(a2-3)Gal
# In short: as §1
# [23] = molecular target: Neu5Ac(a2-3)Gal(b1-3)GalNAc
# In short: as §1
# [24] = molecular target: Neu5Ac(a2-3)Gal(b1-3)GalNAc(b1-3)Gal(a1-4)Gal(b1-4)Glc
# In short: as §1
# [25] = molecular target: Neu5Ac(a2-3)Gal(b1-3)GalNAc(b1-3)Gal(b1-4)GlcNAc
# In short: as §1
# [26] = molecular target: Neu5Ac(a2-3)Gal(b1-3)GalNAc(b1-4)[Neu5Ac(a2-3)]Gal(b1-4)Glc
# In short: as §1
# [27] = molecular target: Neu5Ac(a2-3)Gal(b1-3)GalNAc(b1-4)[Neu5Ac(a2-8)Neu5Ac(a2-3)]Gal(b1-4)Glc
# In short: as §1
# [28] = molecular target: Neu5Ac(a2-3)Gal(b1-3)GalNAc6S
# In short: as §1
# [29] = molecular target: Neu5Ac(a2-3)Gal(b1-3)GlcNAc
# In short: as §1
# [30] = molecular target: Neu5Ac(a2-3)Gal(b1-3)GlcNAc(b1-2)Man
# In short: as §1
# [31] = molecular target: Neu5Ac(a2-3)Gal(b1-3)GlcNAc(b1-2)Man(a1-3)[GlcNAc(b1-4)][Neu5Ac(a2-3)Gal(b1-3)GlcNAc(b1-2)Man(a1-6)]Man(b1-4)GlcNAc(b1-4)GlcNAc
# In short: as §1
binder,measurement,setting,value
"HPA (Helix pomatia), Q2F1K8 (protein) MQAFYSGLLLLCVVAFAAAQRVQSGKIDCGNDAGWAKVPSDDPGRDNTRELAKNITFASPYCRPPVVLLSITQLDVEQSQNLRVIARLYSVSPTGFKASCYTWHNTKVYSMSISWISIENY",glycan array binding signal (z-score),[1],-0.295
same,glycan array binding signal (z-score),[2],0.443
same,glycan array binding signal (z-score),GlcNAc(b1-4)GlcNAc,-0.249
same,glycan array binding signal (z-score),[3],-0.268
same,glycan array binding signal (z-score),[4],-0.314
same,glycan array binding signal (z-score),[5],-0.223
same,glycan array binding signal (z-score),[6],-0.401
same,glycan array binding signal (z-score),[7],-0.35
same,glycan array binding signal (z-score),GlcNAc(b1-6)GalNAc,-0.293
same,glycan array binding signal (z-score),GlcNAc3Prop(b1-4)GlcNAc,-0.979
same,glycan array binding signal (z-score),[8],-0.208
same,glycan array binding signal (z-score),Kdn(a2-3)Gal(b1-3)GalNAc,0.037
same,glycan array binding signal (z-score),Kdn(a2-3)Gal(b1-3)GlcNAc,-0.188
same,glycan array binding signal (z-score),Kdn(a2-3)Gal(b1-4)Glc,-0.216
same,glycan array binding signal (z-score),Kdn(a2-3)Gal(b1-4)GlcNAc,-0.14
same,glycan array binding signal (z-score),[9],0.172
same,glycan array binding signal (z-score),Kdn(a2-6)Gal(b1-4)GlcNAc,-0.242
same,glycan array binding signal (z-score),[10],-0.088
same,glycan array binding signal (z-score),[11],-0.246
same,glycan array binding signal (z-score),Man(a1-2)Man(a1-3)Man,-0.22
same,glycan array binding signal (z-score),[12],-0.231
same,glycan array binding signal (z-score),[13],-0.178
same,glycan array binding signal (z-score),[14],-0.15
same,glycan array binding signal (z-score),[15],-0.201
same,glycan array binding signal (z-score),[16],-0.253
same,glycan array binding signal (z-score),[17],-0.401
same,glycan array binding signal (z-score),Man(a1-3)[Man(a1-6)]Man,-0.163
same,glycan array binding signal (z-score),[18],0.257
same,glycan array binding signal (z-score),[19],-0.135
same,glycan array binding signal (z-score),[20],-0.156
same,glycan array binding signal (z-score),[21],-0.19
same,glycan array binding signal (z-score),[22],-0.071
same,glycan array binding signal (z-score),Man(a1-6)Man,-0.11
same,glycan array binding signal (z-score),Man(b1-4)GlcNAc,-0.144
same,glycan array binding signal (z-score),MurNAc(b1-4)GlcNAc,-0.319
same,glycan array binding signal (z-score),Neu5Ac(a2-3)Gal,-0.244
same,glycan array binding signal (z-score),[23],0.033
same,glycan array binding signal (z-score),[24],-0.079
same,glycan array binding signal (z-score),[25],-0.061
same,glycan array binding signal (z-score),[26],-0.295
same,glycan array binding signal (z-score),[27],-0.121
same,glycan array binding signal (z-score),[28],-0.272
same,glycan array binding signal (z-score),[29],-0.209
same,glycan array binding signal (z-score),[30],0.088
same,glycan array binding signal (z-score),[31],-0.147
